Experimental findings from ChEMBL document CHEMBL4888484, “Replenishing the malaria drug discovery pipeline: Screening and hit evaluation of the MMV Hit Generation Library 1 (HGL1) against asexual blood stage Plasmodium falciparum ,using a nano luciferase reporter read-out” (2022) are described below.

About 540 (0.36%) of roughly 150,000 compounds showed an effect of 50% or more. Some of the results follow.

The subject of this experiment is Plasmodium falciparum. Nature of the experiment: Primary screen in NF54 nanoGlo assay, in single point, at 2uM, 72h; a lower Z score goes with more inhibition. In kind it is functional, Erythrocyte. The settings on record: timepoint 72 hour.
Broadly, the % Inhibition is the relative decrease from the control value, in per cent. Take `CS(=O)(=O)N1CCCCC1CNC(=O)[C@@]12C[C@@H]1COC21CCC1` (some centres undefined): the “% Inhibition” value is listed as -18% and the Z score was 1.88.
Taken in the same sequence, the figures for `CCCN(CC(=O)Nc1ccc(F)c(F)c1F)C(=O)c1cc(S(=O)(=O)N(C)C)ccc1N1CCCC1` were -9% and 1.6.
In the case of `Cc1cccc(N(C)Cc2nccs2)n1`, the “% Inhibition” value is recorded as -16% and the Z score was 1.86.
For the molecule `CC(C)(C)OC(=O)NC[C@@H]1CCCN(CCCO)[C@@H]1C(F)(F)F`, the “% Inhibition” value is on record as -7% and the Z score is reported as 0.64.
In the same order, the values of `O=C(Nc1cccc(-c2ncc[nH]2)c1)c1ccccc1Br` are 1% and -0.11.
In the same order, the values of `C#CCCC1(CCC(=O)N2CCn3nccc32)N=N1` are -8% and 1.05.
Taken in the same sequence, the figures for `CCc1n[nH]cc1C(=O)N1CCCC[C@@H]1CCc1ccccc1` were -1% and 0.15.
Take `O=C(Cn1cc(F)ccc1=O)N1CCCc2ccccc21`: the “% Inhibition” value is -16% and the Z score is on record as 2.21.
In the case of `Cc1cc(C)c2c(N)c(C(=O)N(c3ccccc3)c3c(Cl)cccc3Cl)sc2n1`, the “% Inhibition” value is recorded as -4% and the Z score is on record as 0.81.
Taken in the same sequence, the figures for `CCOc1ccc(S(N)(=O)=O)cc1-c1nc(CC)no1` were -7% and 1.27.
In the same order, the values of `NC(=O)C1CCN(CCCn2c(=O)[nH]c3ccccc32)CC1` are -12% and 1.83.
In the same order, the values of `CCn1c(Cc2ccncc2)nnc1N1CCC(C)(COC)CC1` are -9% and 1.02.
Turning to `CC(C)(C)[C@@](C)(C#N)NC(=O)Cc1ccc(F)cc1`, the “% Inhibition” value was determined as 16% and the Z score is -1.88.
In the same order, the values of `Cc1ncsc1C(=O)N1CCC2(CCC(=O)N(CCc3c[nH]cn3)C2)CC1` are -7% and 0.68.
In the same order, the values of `CC(C)CCC(=O)N1CCC(N2CCC[C@H](C(=O)NCc3ccccn3)C2)CC1` are -2% and 0.28.
Taken in the same sequence, the figures for `O=C(CCc1ccon1)N1CCC(Cc2c(F)cccc2F)CC1` were -11% and 1.34.
With `O=S(=O)(Nc1cc(F)c(F)cc1Cl)c1cnn([C@H]2CCOC2)c1`, the “% Inhibition” value stood at 15% and the Z score is listed as -1.29.
With `Cn1ccc(NC(=O)COc2ccc(OCc3ccccc3)cc2)n1`, the “% Inhibition” value is -7% and the Z score is 1.01.
Taken in the same sequence, the figures for `O=C(N[C@H]1CCN(c2ccc3nncn3n2)C1)OCC1CCC1` were -17% and 2.78.
In the case of `CC1(NC(=O)CCc2cncc(F)c2)CCCCCC1`, the “% Inhibition” value is recorded as -8% and the Z score was found to be 0.97.
In the same order, the values of `CCc1nc(N(CCC(=O)NCc2ccco2)CC(C)C)c2cc(Cl)cc(Cl)c2n1` are 10% and -0.94.
Taken in the same sequence, the figures for `CCc1noc([C@H](C)N2CCOc3cc(OC)ccc3C2)n1` were -2% and 0.35.
In the same order, the values of `COc1cc(C(=O)Nc2[nH]c(=O)ncc2F)ccc1Cl` are 76% and -11.96.
For the molecule `O=C(CCc1ccccc1)OC1CN(c2nc3ccccc3s2)C1`, the “% Inhibition” value was -10% and the Z score came to 1.1.
Taken in the same sequence, the figures for `CCc1nccn1Cc1cnc2ccccn12` were -8% and 1.25.
In the same order, the values of `COc1ccccc1[C@H]1CCCNCC1` are 9% and -0.83.
On to `CC1CC(NC(=O)C(c2ccccc2)c2ccccc2)CC(C)(C)C1` (centres undefined), for which the “% Inhibition” value came to 3% and the Z score is -0.33.
Taken in the same sequence, the figures for `CCc1nn(C)cc1CNC1CCCCC1C(N)=O` (centres undefined) were -2% and 0.24.
On to `COc1ccc(-c2noc(CCCC(=O)Nc3ccc4c(c3)OCCO4)n2)cc1OC`, for which the “% Inhibition” value is on record as -11% and the Z score is reported as 1.01.
Turning to `CCCn1ncc(C(=O)N2C[C@H](O)CO2)c1C`, the “% Inhibition” value was -12% and the Z score amounted to 1.08.
In the same order, the values of `CC(C)c1noc(-c2ccnc(N3C[C@H](C(=O)N4CCOCC4)[C@@H](C)C3)c2)n1` are -16% and 3.15.
In the same order, the values of `O=C(NCc1ccc(S(=O)(=O)N2CCCCCC2)s1)c1ccc(Cl)cc1` are -10% and 1.61.
Taken in the same sequence, the figures for `CCCCCN(C)c1ccc(F)cc1CNCc1ccc(C(=O)NC)cc1` were -12% and 1.91.
For `O=C(CCN1CCOC1=O)NCCC1CC2CCC1C2` (centres undefined), the “% Inhibition” value is -14% and the Z score is 2.36.
As for `CS(=O)(=O)c1ccc([C@H]2CC(O)=Nc3c2c(=O)[nH]n3C2CCCCCC2)cc1`, the “% Inhibition” value is given as -6% and the Z score was found to be 0.63.
Taken in the same sequence, the figures for `COc1ccc(N2C(=O)CN(CCc3ccc(F)cc3)[C@H]3CS(=O)(=O)C[C@H]32)cc1Cl` were -8% and 1.36.
Turning to `Cc1cccc(C[C@H](C)n2ccnc2-c2ccncc2)n1`, the “% Inhibition” value is on record as 5% and the Z score is given as -0.75.
Taken in the same sequence, the figures for `Cc1c(C(=O)N2CCOCC2)c(S(=O)(=O)N2CCCc3ccccc32)c(C)n1C` were -10% and 1.85.
In the same order, the values of `CCc1nnc(CNC(=O)Nc2ccc(OC(F)(F)F)cc2)s1` are -10% and 1.81.
In the same order, the values of `CCN1C(=O)[C@H]2[C@@H](C1=O)[C@@](CO)(C(=O)OC)N[C@H]2c1cccc(C#N)c1` are -6% and 1.09.
On to `CC1CC1c1ccc(CNCC2(O)Cc3ccccc3C2)o1` (centres undefined), for which the “% Inhibition” value is recorded as -18% and the Z score is on record as 1.9.
Taken in the same sequence, the figures for `COc1ccc(-c2ccc(=O)n(-c3c(C)noc3C)n2)cc1S(=O)(=O)Nc1ccc(Cl)cn1` were -2% and 0.4.
